The text below walks through data of PubChem BioAssay AID1745853 (National Center for Advancing Translational Sciences (NCATS), 2022).

What all share (assay): Primary Screen for Target Class Profiling of Small Molecule Inhibitors of Methyltransferases
The target of assay [1] is Glycine N-methyltransferase (Homo sapiens) (UniProt Q14749). Conditions: purified enzyme, MTase-Glo SAH luminescence; measured here: GNMT inhibition; at 40 µM; stronger effect = lower value. The essentials: (§1)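 Each enzyme was reacted with SAM and its substrate, with compounds tested once at 40 uM; SAH formed was read by MTase-Glo luminescence.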
Assay [2] deals with Guanidinoacetate N-methyltransferase (Homo sapiens) (UniProt Q14353). Conditions: purified enzyme, MTase-Glo SAH luminescence; measured here: GAMT inhibition; at 40 µM; stronger effect = lower value. An outline of the steps:
as §1

In assay [3] the target is Histamine N-methyltransferase (Homo sapiens) (UniProt P50135). Conditions: purified enzyme, MTase-Glo SAH luminescence; measured here: HNMT inhibition; at 40 µM; stronger effect = lower value. The essentials:
as §1

Assay [4] deals with Nicotinamide N-methyltransferase (Homo sapiens) (UniProt P40261). Conditions: purified enzyme, MTase-Glo SAH luminescence; measured here: NNMT inhibition; at 40 µM; stronger effect = lower value. The essentials:
as §1

Assay [5] addresses Phenylethanolamine N-methyltransferase (Homo sapiens) (UniProt P11086). Conditions: purified enzyme, MTase-Glo SAH luminescence; measured here: PNMT inhibition; at 40 µM; stronger effect = lower value. An outline of the steps: as §1

Each structure is given as a SMILES string. “And” between values parts separate entries of the source, which are not always exact repeats. Equal entries are not always repeated. Some of the results follow. Shown are side measurements of this screen, not its main read-out; they come without a call.
% is scaled to controls: 0 for no effect and ±100 for the full control effect.

For the molecule `O=C(Nc1cccc(Br)c1)c1cccc(S(=O)(=O)N2CCCCCC2)c1`, the activity change, negative = inhibition in assay [1] was 5.77%; in assay [2], -7.02%; in assay [3] it was 6.41%; in assay [4] it was -25.9%; in assay [5] it was -4.23%.
Taken in the same sequence, the figures for `CCCCN1C(=O)c2cc(C(=O)Nc3c(C)cccc3C)nn2CC1(C)C(=O)NC1CCCC1` (stereo not given) were 3.16%, 0%, -5.87%, 6.48% and 3.15%.
Taken in the same sequence, the figures for `CCC(CC)C(=O)NCCc1noc(C)n1` were -0.254%, 0.388%, 2.68%, 3.31% and 0.845%.
Taken in the same sequence, the figures for `O=C(O)Cn1nnc(-c2cc(N3CCC(Oc4cc(F)ccc4Br)CC3)no2)n1` were -7.37%, -12.7%, -2.77%, -27.1% and -13.5%.
Consider `C[C@@H]1CC[C@]2(C(=O)O)CC[C@]3(C)C(=CCC4[C@@]5(C)CC[C@H](O)C(C)(C)C5C(O)C[C@]43C)[C@@H]2[C@]1(C)O` (stereo not given in full), for which the activity change, negative = inhibition in assay [1] was 3.67%; in assay [2], 6.62%; in assay [3], 9.67%; in assay [4] it was -7.7%; in assay [5], 8.38%.
Taken in the same sequence, the figures for `CCN1CCN(CC(O)COc2cccc(CNCc3cnn(CC)c3)c2)CC1` (stereo not given) were -7.27%, -9.7%, -9.93%, -18.2% and -11.5%.
In the case of `COc1ccc(CC(=O)N[C@H]2[C@H](O)[C@H](O)C[C@@H]2c2ccccc2)cc1`, the activity change, negative = inhibition was -4.93% in assay [1]; -3.81% in assay [2]; -3.8% in assay [3]; -8.09% in assay [4]; 0.529% in assay [5].
As for `COc1ccc(N2C(=O)c3ccc(-c4ccco4)n3CC2(C)C(=O)NCc2ccccc2)cc1` (stereo not given), the activity change, negative = inhibition in assay [1] is -27.6%; in assay [2], -2.37%; in assay [3], -4.21%; in assay [4], -10.8%; in assay [5] it was -7.31%.
For `CC(C)CCn1c(=O)c2ccc(C(=O)NC3CCCCC3)cc2n2c(=O)n(Cc3ccc(F)cc3)nc12`, in that order: 4.55%, 0%, 5.82%, 0.387% and 2.93%.
Regarding `CCOC(=O)c1cc2n(n1)CC(C)(C(=O)NCCC(C)C)N(c1cc(OC)cc(OC)c1)C2=O` (stereo not given), the activity change, negative = inhibition was -1.65% in assay [1]; 0% in assay [2]; 2.98% in assay [3]; 4.6% in assay [4]; 1.83% in assay [5].
In the case of `C[S+](=O)([O-])c1cccc(NC(=O)Cc2c[nH]c3ncc(-c4cccnc4)cc23)c1`, the activity change, negative = inhibition was -27.7% in assay [1]; -14.8% in assay [2]; -21% in assay [3]; -28.3% in assay [4]; -22.2% in assay [5].
For `COc1ccc(CCC(=O)N2CCC(Cc3nc(-c4ccc(OC)cc4)no3)CC2)cc1`, in that order: -5.17%, 2.04%, 0.746%, -6.04% and -3.4%.
Turning to `CCCS(=O)(=O)N1CCC(c2noc(-c3ccccc3)n2)C1` (stereo not given), the activity change, negative = inhibition in assay [1] was -1.63%; in assay [2], 0.049%; in assay [3], -1.45%; in assay [4], -0.455%; in assay [5], -12.5%.
Turning to `CCCc1nn(C)c2c(=O)[nH]c(-c3cc(S(=O)(=O)N4CCN(C)CC4)ccc3OCC)nc12`, the activity change, negative = inhibition in assay [1] was 1.83% and 0.067%; in assay [2], 14.9% and -1.24%; in assay [3], 7.49% and 2.62%; in assay [4], -2.66% and -22.8%; in assay [5], 0.338% and 2.37%.
Take `CCc1cc2c(cc3n2CC(C)(C(=O)NC2CCCCCC2)N(c2ccc(C)cc2C)C3=O)s1` (stereo not given): the activity change, negative = inhibition in assay [1] is 3.01%; in assay [2] it was 0.735%; in assay [3] it was 4.11%; in assay [4] it was 6.52%; in assay [5], -0.664%.
For `CCc1cc2c(cc3n2CC(C)(C(=O)NC2CCC(C)CC2)N(Cc2ccccc2OC)C3=O)s1` (stereo not given), in that order: 0.857%, 0%, 7.23%, 0.095% and 1.93%.
Taken in the same sequence, the figures for `CCCCN(CC)CCN1C(=O)c2ccc(-c3ccco3)n2CC1(C)C(=O)NC1CCC(C)CC1` (stereo not given) were -2.02%, 2.5%, 2.73%, -18.7% and 0.025%.
Take `COc1ccc(CN2CCC3(C2)C(=NC2CCCCC2)NC(=O)N3c2cc(F)cc(F)c2)cc1` (stereo not given): the activity change, negative = inhibition was -2.07% in assay [1]; -5% in assay [2]; -3.23% in assay [3]; -7.66% in assay [4]; -2.34% in assay [5].
Taken in the same sequence, the figures for `COc1cccc(CNC(=O)Cn2c(=O)oc3cc(S(=O)(=O)N4CCC(C)CC4)ccc32)c1` were -12.1%, 0.794%, -8.05%, -6.59% and -10.9%.
For `COc1ccc(CNc2nc3c(S(=O)(=O)c4cc(C)ccc4C)nnn3c3ccccc23)cc1`, in that order: -7.47%, -3.2%, -5.29%, -14.2% and -5.83%.
Regarding `CN(C[C@@H]1COCCO1)S(=O)(=O)Nc1ccc2ccc3ncc(-c4cnn(C)c4)cc3c(=O)c2c1`, the activity change, negative = inhibition is -13.5% in assay [1]; 1.47% and -12.5% in assay [2]; 3.7% in assay [3]; -13.5% and -21.8% in assay [4]; -11.5% and -27.9% in assay [5].
Take `CCCN1C(=O)c2c(C(=O)NCc3cccc(F)c3)ncn2CC1(C)C(=O)NCc1ccc(OC)cc1` (stereo not given): the activity change, negative = inhibition was -0.506% in assay [1]; 0% in assay [2]; -3.35% in assay [3]; 1.35% in assay [4]; 3.55% in assay [5].
Taken in the same sequence, the figures for `CCN1CCN(Cc2ccc(NC(=O)c3ccc(C)c(NC(=O)c4cncc(-c5cccs5)c4)c3)cc2C(F)(F)F)CC1` were 4.01%, 3.86%, 5.03%, -16.7% and -1.56%.
For `CCOC(=O)c1ccc(N2C(=O)CSc3c(c4ccccc4n3C)C2C(=O)NCCC(C)C)cc1` (stereo not given), in that order: 9.17%, 0%, 3.73%, -0.591% and 3.41%.
Taken in the same sequence, the figures for `COc1cccc(NS(=O)(=O)c2cc3c(cc2C)n(C)c(=O)n3C)c1` were -0.883%, 0%, -4.85%, -7.13% and -1.2%.
As for `COc1ccc(OC)c(CNC(=O)Cn2ccc3cc(S(=O)(=O)N4CCC(C)CC4)ccc32)c1`, the activity change, negative = inhibition stood at 8.67% in assay [1]; 2.76% in assay [2]; 1.71% in assay [3]; 4.4% in assay [4]; 4.89% in assay [5].
For `Cc1cc2c(cc3n2CC(C)(C(=O)NC2CCCCCC2)N(c2cccc(Cl)c2C)C3=O)o1` (stereo not given), in that order: -3.63%, 2.86%, -1.96%, 2.16% and -1.3%.
Taken in the same sequence, the figures for `CC(C)CCn1c(=O)c2ccccc2n2c(SCc3ccc(F)cc3)nnc12` were 2.03%, 4.76%, 4.02%, -7.64% and 4.65%.
For `Cc1ccc(NC(=O)N2CCCN(CCn3nc4n(c3=O)CCCC4)CC2)cc1F`, in that order: -7.95%, -10.4%, -5.11%, 0.241% and -7.32%.
